“And” between values parts separate entries of the source, which are not always exact repeats. Equal entries are not always repeated. About 540 (0.19%) of roughly 280,000 compounds were called active. The shares of active, inactive and inconclusive entries below differ from those in the screen. Calls come from the whole dose curve; as a rule, active = well fitted activation curve with a large enough effect; inconclusive = small, poorly fitted or top-dose-only effect; inactive = flat fitted curve, though single readings scatter. Potencies of inconclusive entries are doubtful fits and often do not repeat.
Test: Quantitative High-Throughput Screen for Regulators of Epigenetic Control; note: nearly all actives have a fitted effect of over 60% in size
Details: murine LDR cells, GFP reporter derepression, 30 h; series mostly up to 53.9 µM
Excerpt: NIH Molecular Libraries Screening Centers Network [MLPCN] NIH Chemical Genomics Center [NCGC] MLSCN Grant: 1 X01 MH079860-01 Assay Provider: Elisabeth D. Martinez, University of Texas SW Medical Center NCGC Assay Overview: The Locus Derepression (LDR) assay detects the derepression or induction of a GFP reporter that is stably integrated in a genomic region of murine cells that is presumably silenced. Transcription of the GFP reporter is controlled by a CMV promoter, which normally is constitutively active. However, this cell line, termed LDR, was selected for lack of constitutive production of GFP. GFP production can be induced by incubating the cells with histone deacetylase or DNA methyltransferase inhibitors (Martinez et al., 2006). Compounds that derepress or induce this reporter locus are identified by enumerating GFP positive cells using a laser-scanning microplate cytometer (Auld et al., 2006). This assay was screened against the MLSMR earlier (AID 597; (Johnson et al., 2008) and has been rescreened here against the expanded collection.
NCGC Assay Protocol Summary: Three hundred LDR cells in 5 uL per well were dispensed into black, clear-bottom 1536-well plates. Twenty-three nL compound was transferred to the assay plate and cells were incubated 30 hours at 37 C. Medium was removed, cells were washed two times with PBS, and GFP-positive cells were enumerated as fluorescent objects between the sizes of 20 to 120 um width and depth using an Acumen Explorer. References Auld, DS, Johnson, RL, Zhang, YQ, Veith, H, Jadhav, A, Yasgar, A, Simeonov, A, Zheng, W, Martinez, ED, Westwick, JK, Austin, CP, Inglese, J (2006). Fluorescent protein-based cellular assays analyzed by laser-scanning microplate cytometry in 1536-well plate format. Methods Enzymol 414: 566-89. Johnson, RL, Huang, W, Jadhav, A, Austin, CP, Inglese, J, Martinez, ED (2008). A quantitative high-throughput screen identifies potential epigenetic modulators of gene expression. Anal Biochem 375: 237-48. Martinez, ED, Dull, AB, Beutler, JA, Hager, GL (2006). High-content fluorescence-based screening for epigenetic modulators. Methods Enzymol 414: 21-36.
Potency is the fitted concentration of half-maximal effect; tags give direction and shape of the fitted curve.

Compound	Potency
NC(=O)c1ccc(N=Nc2c(O)[nH]c(=O)[nH]c2=O)cc1	inconclusive: 31.6 µM [activator, single point]
NCCCP(=O)(O)CC1CCCCC1	inconclusive: 35.5 µM [activator, single point]
COc1ccc(CC2NC[C@H](O)[C@H]2OC(C)=O)cc1 (some centres undefined)	inconclusive: 0.501 µM [activator, partial curve, poor fit]
COc1ccc2c3c([nH]c2c1)C(C)=NCC3	inconclusive: 20 µM [activator, single point] and inconclusive: 25.1 µM [activator, single point]
CC[C@@H](CO)NC(=O)[C@H]1C=C2c3cccc4c3c(cn4C)C[C@H]2N(C)C1	inactive
CCC1(c2ccc(N)cc2)CCC(=O)NC1=O (centres undefined)	inconclusive: 0.112 µM [activator, full curve, poor fit]
Cc1nn(Cc2ccccc2)c(Cl)c1C(=O)OCC(=O)Nc1cccc2ccccc12	inconclusive: 12.6 µM [activator, partial curve]
CCC1CN2CCc3cc(OC)c(OC)cc3C2CC1CC1NCCc2cc(OC)c(OC)cc21 (centres undefined)	inconclusive: 17.8 µM [activator, single point]
O=C(N/N=C/c1c(O)n(CCc2ccc(F)cc2)c(=O)[nH]c1=O)c1ccccc1	inconclusive: 12.6 µM [activator, single point]
O=C(/C=C/c1ccc(F)cc1)NNC(=O)CCN1CCN(Cc2ccccc2)CC1	inconclusive: 35.5 µM [activator, single point]
O=c1c2ccccc2nc(CSc2ncnc3nc[nH]c23)n1-c1ccccc1	inconclusive: 25.1 µM [activator, single point]
Cc1cccc(CN2CCN(c3ccc(Cl)cc3)CC2)c1	inactive
C=C1C2CCC3[C@@](CC[C@@H]4C(C(=O)O)CC(OC5OC(CO)C(OS(=O)(=O)O)C(OS(=O)(=O)O)C5OC(=O)CC(C)C)C[C@]34C)(C2)C1O (some centres undefined)	inactive
CCNC(=S)NCCC1=c2ccccc2=N/C1=C\c1c(O)n(C)c(=O)n(C)c1=O	inconclusive: 25.1 µM [activator, single point]
O=C1NC(=O)N(c2ccc3c(c2)OCO3)C(=O)/C1=C/c1cccs1	active: 22.4 µM
Cc1ccccc1-n1c(/C=C/c2ccc(N(C)C)cc2)nc2ccccc2c1=O	active: 10 µM
c1ccc2c(c1)[I+]c1ccccc1-2	inconclusive: 17.8 µM [activator, single point]
C=CCn1c(O)c(C=Nc2ccc(N(CC)CC)cc2)c(=O)[nH]c1=O	inconclusive: 35.5 µM [activator, single point]
C=C1C(=O)O[C@@H]2C[C@@H](C)[C@H]3C=CC(=O)[C@]3(O)C[C@@H]12	inconclusive: 5.62 µM [activator, single point]
CNc1ccc(C(=O)CC(O)CCC(C)C2OC(=O)CC(O)CC(=O)CC(O)CC(O)CC(O)CC(O)CC3(O)CC(O)C(C(=O)OC)C(CC(O[C@@H]4OC(C)C(O)C(N)C4O)/C=C/C=C/C=C/C=C/C=C/C=C/C=C/C2C)O3)cc1 (some centres undefined)	inconclusive: 25.1 µM [activator, single point]
C[C@]12CC[C@H](O)CC1=CCC1C2CC[C@]2(C)C(=O)CC[C@@H]12 (some centres undefined)	inconclusive: 35.5 µM [activator, single point]
COC(=O)[C@]12OC[C@]34C([C@@H](O)[C@@H]1O)[C@]1(C)CC(=O)C(O)=C(C)[C@@H]1C[C@H]3OC(=O)[C@H](O)[C@@H]24 (some centres undefined)	inconclusive: 11.2 µM [activator, partial curve]

Compound	Potency
COc1ccc(/C=C2\C(=O)NC(=O)N(Cc3ccccc3)C2=O)c(OC)c1OC	inactive
O=c1oc(Cl)c(Cl)c2ccccc12	inconclusive: 22.4 µM [activator, single point]
CN1CCN(c2ncnc(Cl)c2N)CC1	inactive
CC(C)N1C(=O)/C(=C/C=C/c2ccco2)C(=O)N(Cc2ccco2)C1=O	inconclusive: 35.5 µM [activator, single point]
CC(C)(C)N1C(=O)NC(=O)/C(=C\c2ccc3c(c2)CCN3CCCCl)C1=O	inactive
BrC1C(Br)C(Br)C(Br)C(Br)C1Br (centres undefined)	inconclusive: 31.6 µM [activator, single point]
O=C1NC(=O)C(=Cc2cn(CCOc3ccc4c(c3)OCO4)c3ccccc23)C(=O)N1	inconclusive: 31.6 µM [activator, single point]
Cc1cc(/C=C2\C(=O)NC(=O)N(c3ccc(F)cc3)C2=O)c(C)n1-c1ccc(C(=O)O)cc1	inactive
Cc1ccccc1-n1c(/C=C/c2c(C)[nH]c3ccccc23)nc2ccccc2c1=O	inconclusive: 12.6 µM [activator, partial curve]
CC/C=C\C/C=C\C/C=C\C/C=C\C/C=C\CCCC(=O)NCCc1ccc(O)c(O)c1	inconclusive: 35.5 µM [activator, single point]
COc1ccc(-c2nc3ccccc3o2)cc1NC(=O)Cc1ccc(Cl)cc1	inconclusive: 35.5 µM [activator, single point]
NCC(CC(=O)O)c1ccc(Cl)s1 (centres undefined)	inconclusive: 5.62 µM [activator, single point]
CCCCC/C=C\C/C=C\C/C=C\CCCCC(=O)NCCc1ccc(O)c(O)c1	inconclusive: 22.4 µM [activator, single point]
Cc1ccc(C(=O)N[C@@H](C)CN2C3=NC[C@@H](Cc4ccccc4)N3C[C@H]2Cc2ccc(O)cc2)cc1Br	inactive
Cc1cc(N2CCCC2)ccc1C=C(C#N)C#N	inconclusive: 31.6 µM [activator, single point]
CN1CCN(c2ccc([N+](=O)[O-])c(Sc3nncn3C)c2)CC1	inactive
COc1ccc(N2C(=O)NC(=O)/C(=C/c3ccc(N4CCOCC4)cc3)C2=O)cc1	inactive
Cc1ccc(CNc2cc(C)nc3nc(-c4ccc(C)cc4)nn23)cc1	inconclusive: 25.1 µM [activator, single point]
CN1/C(=C\C=C2C(=O)NC(=S)NC2=O)C(C)(C)c2ccccc21	active: 17.8 µM
CCN(CCNc1ccc([N+](=O)[O-])c2cccnc12)S(=O)(=O)c1ccccc1	inconclusive: 6.31 µM [activator, full curve]
COc1ccc(OC)c(N2C(=O)NC(=O)/C(=C\c3ccc([N+](=O)[O-])s3)C2=O)c1	inconclusive: 3.55 µM [activator, partial curve]
CCCCn1c(N)c(C(=O)NCc2cccs2)c2nc3ccccc3nc21	inconclusive: 35.5 µM [activator, single point]

Compound	Potency
COc1ccc2c(c1)[nH]c1c(C)nccc12	inconclusive: 20 µM [activator, single point]
CCN(CC)c1ccc(N=Cc2c(O)n(Cc3ccccc3)c(=O)[nH]c2=O)cc1	active: 12.6 µM
COc1ccc2nc(NC(=O)c3nc(S(=O)(=O)Cc4cccc(C)c4)ncc3Cl)sc2c1	inconclusive: 5.62 µM [activator, single point]
OC12ONC(c3ccccn3)C1N1CCC2CC1 (centres undefined)	inconclusive: 25.1 µM [activator, single point]
COc1ccc(CNC(=O)Cn2c(=O)nc(-c3ccccc3F)c3cc(Cl)ccc32)cc1	inconclusive: 35.5 µM [activator, single point]
CCOC(=O)c1c(/N=C/C2C(=O)NC(=S)NC2=O)sc2c1CCC2	inconclusive: 35.5 µM [activator, single point]
Cn1c(NN=O)nc2ccccc21	active: 11.2 µM
CC[C@H]1CN2CCc3cc(OC)c(OC)cc3[C@@H]2C[C@@H]1C[C@H]1NCCc2cc(OC)c(OC)cc21	inconclusive: 0.562 µM [activator, full curve]
Cc1cccc(N2C(=O)NC(=O)/C(=C\c3cccn3-c3ccc(Cl)cc3)C2=O)c1	inconclusive: 35.5 µM [activator, single point]
CCCCCCCCc1[se]c2ccccc2c1Br	inactive
O=C1CCCC2[C@@H]3CCCN4CCC[C@@H](CN12)C34 (some centres undefined)	inconclusive: 25.1 µM [activator, single point]
N#CC(C#N)=Cc1ccc(C=C(C#N)C#N)cc1	inconclusive: 31.6 µM [activator, single point]
CCCCNC(=O)c1c(N)n(Cc2ccc3c(c2)OCO3)c2nc3ccccc3nc12	inconclusive: 31.6 µM [activator, single point]
CC1(C(=O)O)C2CCC(O2)C1(C)C(=O)O (centres undefined)	inconclusive: 5.62 µM [activator, single point]
C=CCN1C(=O)NC(=O)/C(=C\c2ccc(-c3ccccc3[N+](=O)[O-])o2)C1=O	inactive
CCc1ccc(N2C(=O)NC(=O)/C(=C\c3cccn3CCOc3ccc(C(C)C)cc3)C2=O)cc1	inconclusive: 25.1 µM [activator, single point]
Cc1[nH]ccc2c1[nH]c1cc(=O)ccc12	inconclusive: 31.6 µM [activator, single point]
Cc1cccc(C(=O)Nc2ccc(C(=O)OCc3cc(=O)n4nc(C5CC5)sc4n3)cc2)c1	inconclusive: 35.5 µM [activator, single point]
ClC1=C(Cl)C(Cl)=C(Cl)C1=C/C=C/c1ccccc1	inconclusive: 4.47 µM [activator, single point]
Cc1c2ccncc2c(C)c2c1[nH]c1ccccc12	inconclusive: 8.91 µM [activator, single point] and inconclusive: 17.8 µM [activator, single point] and inconclusive: 3.98 µM [activator, partial curve]

From PubChem BioAssay AID1865 (National Center for Advancing Translational Sciences (NCATS), 2009)
